Some of the results follow.

Sequences and labels used below:
B1: chr12:73312838:73312839:-_ENSMUSG00000021087_ENSMUST00000021497|mus_hu|motif|central (ssRNA)
RNA: GGGAGUUCUACAGUCCGACGAUCUCAGUAUCAAGUACAUAAGUGCAAAUAUCCAGAGUCCGUAAUUGAAUCCAUUAGGAACGGCAGAGAAAGUAAUACAAAUUGUAAUAAAGUUAACAUGCUGGUACUUUUUAGUAACCAUACCAACAGAGGAUUGAGCAUCA
B2: 3977921_3978041_1991_CDS_ENSG00000167658_ENST00000309311|human|control|control (ssRNA)
RNA: GGGAGUUCUACAGUCCGACGAUCGGGCCCAAAGCACCAGAUCUUGCGGGCCUCAGCCACGUCCCACUCGUACUUCUCGGCCAGGUAGCGCGCCCGCUGCUUGAGCUCCUGACGGGCGGACACCUCGCCUUUAUCGAUGUCCUCCAACAGAGGAUUGAGCAUCA
B3: chr19:40639365:40639366:-_ENSMUSG00000025007_ENSMUST00000025979|mus_mus|FALSE|FALSE (ssRNA)
RNA: GGGAGUUCUACAGUCCGACGAUCGGCUGCCACCUGGGGUAGACAGUCAGGGCGAGACUCAAAGAUCACCAGUAAAACACCUAUUGGGACAGUCACUUGUUCUAACUCCAGGUUUUUGGCAAUCCGAGUCCGGCGCAGGACGCGCAACAGAGGAUUGAGCAUCA
B4: chr18:9859796:9859797:+_ENSG00000168461_ENST00000578921|hu_mus|motif|central (ssRNA)
RNA: GGGAGUUCUACAGUCCGACGAUCGUCCAGCUGUGCAUCUCUGAUCUCCCUCAGAAAACUAAUAAAGACUUACUUCCAAAGCCAGCGGAGCGCUAACCUCCUAUUAUAGCCUUUGCCUUUUGGUGAACUGGCCAGAAAGGAAGGCAACAGAGGAUUGAGCAUCA
B5: chr11:74493064:74493065:-_ENSMUSG00000020745_ENSMUST00000021091|mus_hu|FALSE|FALSE (ssRNA)
RNA: GGGAGUUCUACAGUCCGACGAUCCUUGUUCUUGUAAUCCCAUACGCGUAGGGUCUUGUCAUCAGCACAACUCAAAAUAAACUUCCCCCCAGAAUGGAACAGAACUCCACGUACCCAGUUAUCAUGACCCACGAGGGUCAUAAGCAACAGAGGAUUGAGCAUCA
B6: chr17:57759655:57759656:+_ENSG00000141367_ENST00000269122|hu_mus|FALSE|FALSE (ssRNA)
RNA: GGGAGUUCUACAGUCCGACGAUCUCGAGCCUUCUUGCGUGCCAUCUGCAAAUACUUCACCAAUUCUUCCCAGUUUCCGCUGGCAUUGGCAGCCUGGACAACUUCCAUGUAAGAUGAAGGAUCAUCUGCUUUGAUGUAAGAAUCCAACAGAGGAUUGAGCAUCA

This assay addresses T1, UNK ZnF1-3 (human, UniProt Q9C0B0 31-174).
T1 sequence: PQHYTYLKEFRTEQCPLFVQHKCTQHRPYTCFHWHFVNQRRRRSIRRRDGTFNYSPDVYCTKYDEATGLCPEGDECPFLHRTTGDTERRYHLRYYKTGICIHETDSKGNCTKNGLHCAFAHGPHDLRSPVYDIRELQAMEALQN
The assay is described as follows: nsRBNS (natural sequence RNA bind-n-seq); RBNS binding buffer (assumed for nsRBNS): 25 mM Tris pH 7.5, 150 mM KCl, 3 mM MgCl2, 0.01% Triton X-100, 500 ug/ml BSA, 20 U/ml SUPERase-In, 4 C; UNK is unkempt and MSI1 is Musashi-1; names of the RNAs are library labels; protein concentration not given here; high values mean tight binding.
The molecule B1 gave a binding signal of 1.54 enrichment R. B2 came in with a binding signal of 0.544 enrichment R. Molecule B3 displayed a binding signal of 1.48 enrichment R. In the case of B4 it was 1.27 enrichment R; in that of B5, 0.977 enrichment R.

As for B6, the binding signal amounted to 0.804 enrichment R.
